Data taken from publication PMC3781056, “New Pyrazolopyrimidine Inhibitors of Protein Kinase D as Potent Anticancer Agents for Prostate Cancer Cells” (PLoS ONE, 2013).
Where a chain is given by its changes, count along the chain named. pIC50: −log10 of the molar value.

Legend:
[1] = target: T1, endogenous PKD1 in LNCaP prostate cancer cells (Homo sapiens, UniProt Q15139); experiment: PMA-induced endogenous PKD1 activation in LNCaP cells (immunoblot); type: cell-based; details: PMA 10 nM 20 min
T1 construct: endogenous in cells; host or cells: LNCaP
T1 sequence (Q15139 1-912): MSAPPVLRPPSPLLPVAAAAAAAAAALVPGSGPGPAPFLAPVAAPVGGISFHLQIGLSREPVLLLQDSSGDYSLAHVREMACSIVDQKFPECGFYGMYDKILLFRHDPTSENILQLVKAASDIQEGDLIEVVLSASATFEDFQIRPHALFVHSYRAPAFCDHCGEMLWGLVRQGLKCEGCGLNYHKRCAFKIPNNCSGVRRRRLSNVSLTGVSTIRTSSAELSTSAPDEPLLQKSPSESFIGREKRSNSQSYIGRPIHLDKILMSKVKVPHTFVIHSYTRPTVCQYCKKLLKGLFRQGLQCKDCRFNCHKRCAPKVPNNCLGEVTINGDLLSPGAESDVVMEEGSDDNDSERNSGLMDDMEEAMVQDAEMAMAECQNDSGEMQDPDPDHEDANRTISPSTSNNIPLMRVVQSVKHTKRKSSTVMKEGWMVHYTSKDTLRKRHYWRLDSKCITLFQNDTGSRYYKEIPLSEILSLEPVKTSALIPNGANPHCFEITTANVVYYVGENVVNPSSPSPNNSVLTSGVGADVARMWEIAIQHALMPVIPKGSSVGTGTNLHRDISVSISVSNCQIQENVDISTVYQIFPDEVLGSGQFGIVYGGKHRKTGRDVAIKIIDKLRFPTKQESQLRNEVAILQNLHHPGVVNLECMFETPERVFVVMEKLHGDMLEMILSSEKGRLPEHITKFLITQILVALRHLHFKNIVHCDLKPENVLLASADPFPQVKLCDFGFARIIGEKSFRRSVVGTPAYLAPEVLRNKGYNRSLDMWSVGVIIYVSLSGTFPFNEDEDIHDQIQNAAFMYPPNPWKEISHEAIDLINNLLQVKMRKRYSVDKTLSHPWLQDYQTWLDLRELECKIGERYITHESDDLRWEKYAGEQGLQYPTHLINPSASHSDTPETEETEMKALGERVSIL

PC3 cells = experiment: Cell cycle analysis by flow cytometry; type: cell-based; details: 30 µM, 72 h, control 5.8%
Experimental: PKD has emerged as a promising therapeutic target for cancer. […] Cell proliferation was determined by treating the cells at 30 µM concentration of agent, and then cell number was counted for six consecutive days in the presence and absence of inhibitor.
PC3 cells were plated in triplicates in 24-well plates. Cells were allowed to attach overnight. […] Cells were counted daily for a total of 5 days. Fresh media and inhibitor were added every 2 days. The means of triplicate determinations were plotted over time. The experiment was repeated twice and results from one representative experiment are shown. […] PC3 cells were seeded into 96-well plates (3000 cells/well) and were then incubated in media containing 0.3–100 µM inhibitors for 72 h. MTT solution was added to each well and incubated for 4 h. Optical density was read at 570 nm to determine cell viability. The IC50 was determined as the mean of two independent experiments for each compound. C. […] Cell cycle distribution was determined by flow cytometry after propidium iodide labeling of fixed cells. Statistical significance was determined by unpaired t-test and is indicated. **, p<0.01; ***, p<0.001. […]
Proliferation of PC3 cells was measured by counting the number of viable cells upon trypan blue staining as previously described. […] The labeled cells were analyzed using a FACSCalibur flow cytometer (BD Biosciences).

[2] = test system: PC3 cells infected with Adv-PKD1 or Adv-PKD3; experiment: Rescue of anti-proliferative effect by adenoviral PKD1/PKD3 overexpression (MTT); type: cell-based; details: PC3, Adv-PKD1 at 100 MOI, 10 and 30 µM, 72 h
Experimental: MTT solution was added to each well and incubated for 4 h. Optical density was read at 570 nm to determine cell viability.

[3] = test system: most native kinases, including the Src, Abl, CAMK, and CDK family of kinases, ERK1/2, and PKA; details: wild-type kinases; cited from earlier work
Flag-PKD1^M659A = target: T2, Flag-PKD1^M659A (Homo sapiens, UniProt Q15139, M659A); experiment: PMA-induced activation of overexpressed Flag-PKD1 mutant in cells (p-S916 immunoblot); details: data not shown
T2 sequence (Q15139 1-912 M659A): T1 sequence (Q15139 1-912) with M659A

## CC(C)(C)n1nc(-c2cccc3ccccc23)c2c(N)ncnc21 [Compound 1-NA-PP1, 1-(t-Butyl)-3-(naphthalen-1-yl)-1H-pyrazolo[3,4-d]pyrimidin-4-amine]
[1]
  PKC-dependent trans-phosphorylation at Ser744/748 of PKD1: unaffected
PC3 cells
  proportion of cells in G2/M phase: 28.6%
[2]
  reversal of 1-NA-PP1-induced inhibition of cell proliferation by PKD overexpression: nearly complete reversal
[3]
  pIC50: < 6.00
Flag-PKD1^M659A
  inhibition of Flag-PKD1^M659A compared to wild-type Flag-PKD1: no significant difference
